We go through 38 molecules from the supplement of paper PMC9446081.

The structures appear in SMILES notation. The whole screen tested about 39,000 compounds, of which about 220 (0.56%) showed activity. This is one part of the list.
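Also: static incubation at 37 °C against the wild-type strain, values averaged over two biological replicates.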

For this assay, the system named is Escherichia coli K-12 BW25113. The assay is described as follows: relative growth (OD600 normalised to plate interquartile mean) (fraction); higher = less growth inhibition, active = 0.2 or less. The note with it: 50 µM; LB; incubation time: overnight (16-24 h).
As for `O=C(Cn1c(=O)n(-c2ccccc2)c(=O)n1CC(=O)N1CCOCC1)N1CCOCC1`, the relative growth is inactive: 1.01.

Regarding `Cc1noc(C)c1NC(=O)Nc1cccc2c1O[C@@H](CN(C)S(=O)(=O)c1ccccc1)[C@H](C)CN([C@H](C)CO)C2=O`, the relative growth was inactive: 1.04.

For `CC(C)NC(=O)Nc1ccc2c(c1)C(=O)N([C@H](C)CO)C[C@H](C)[C@H](CN(C)S(=O)(=O)c1cn(C)cn1)OCCCC[C@H](C)O2`, the relative growth is inactive: 0.993.

On to `C[C@@H]1CN([C@H](C)CO)C(=O)c2cc(NC(=O)CCCCCC(=O)Nc3ccccc3N)ccc2O[C@@H](C)CCCCO[C@@H]1CN(C)C(=O)C1CCCCC1`, for which the relative growth is inactive: 0.96.

For the molecule `C[C@H]1CN([C@@H](C)CO)C(=O)c2cc(NC(=O)CCC(F)(F)F)ccc2O[C@@H]1CN(C)Cc1ccc(Cl)c(Cl)c1`, the relative growth is inactive: 0.976.

As to `COC(=O)c1c(C(=O)OC)c2n(c(=O)c1-c1ccccc1)[C@@H]1c3ccccc3O[C@@](CO)([C@@H]1CO)N2C`, the relative growth was inactive: 0.98.

For `C[C@@H]1CCCCO[C@@H](CN(C)CC2CC2)[C@H](C)CN([C@H](C)CO)C(=O)c2cc(NC(=O)Nc3ccc(C(F)(F)F)cc3)ccc2O1`, the relative growth is inactive: 0.963.

For `CC(C)(C)S(=O)N1Cc2cc(C(=O)N3CCN(Cc4ccccc4)CC3)nc(-c3cccc(-c4cc5ccccc5o4)c3)c2[C@H]1CCO` (stereo partly drawn), the relative growth was inactive: 0.978.

Turning to `C[C@@H]1CN([C@@H](C)CO)C(=O)c2cc(NC(=O)Nc3ccc4c(c3)OCO4)ccc2O[C@@H](C)CCCCO[C@@H]1CN(C)Cc1ccc(C(=O)O)cc1`, the relative growth is inactive: 1.01.

In the case of `C[C@@H]1CN([C@H](C)CO)C(=O)c2cc(NC(=O)Cc3ccccc3)ccc2O[C@@H](C)CCCCO[C@@H]1CN(C)Cc1ccc(Cl)c(Cl)c1`, the relative growth was inactive: 1.03.

Consider `Cc1noc(C)c1NC(=O)N(C)C[C@H]1Oc2ccc(NC(=O)Nc3cccc4ccccc34)cc2CC(=O)N([C@H](C)CO)C[C@@H]1C`, for which the relative growth was inactive: 0.944.

For the molecule `COS(=O)(=O)[O-].COc1cc(N)cn[n+]1-c1ccccc1`, the relative growth is inactive: 0.987.

Regarding `COc1ccc(NC(=O)N(C)C[C@@H]2Oc3ccc(NS(=O)(=O)c4cn(C)cn4)cc3C(=O)N([C@@H](C)CO)C[C@H]2C)cc1`, the relative growth was inactive: 1.

For `O=C(c1ccncc1)N1C[C@H]2[C@@H](c3ccccc31)[C@@H](CO)N2C(=O)CN1CCOCC1`, the relative growth is inactive: 0.98.

For the molecule `C[C@H](CO)N1C[C@H](C)[C@H](CN(C)CC2CC2)Oc2ccc(NC(=O)Cn3cnnn3)cc2CC1=O`, the relative growth is inactive: 0.999.

As for `C[C@H]1CN([C@@H](C)CO)C(=O)c2cc(NC(=O)c3ccncc3)ccc2O[C@H]1CN(C)Cc1ccc(C(=O)O)cc1`, the relative growth was inactive: 0.994.

Take `C[C@@H]1CN([C@H](C)CO)C(=O)c2cc(NC(=O)Nc3ccc4c(c3)OCO4)ccc2O[C@@H](C)CCCCO[C@H]1CN(C)Cc1ccc(C(=O)O)cc1`: the relative growth is inactive: 1.01.

With `COc1ccc2c3c(n(c2c1)C)[C@@H](CO)N(C[C@]13CCN(CC1)C(=O)Nc1cccc(c1)F)C(=O)CN1CCOCC1`, the relative growth was inactive: 0.995.

For `CC(C)NC(=O)N(C)C[C@@H]1Oc2ccc(NS(=O)(=O)c3cccs3)cc2C(=O)N([C@H](C)CO)C[C@@H]1C`, the relative growth is inactive: 1.02.

As to `C[C@@H]1CCCCO[C@H](CN(C)C(=O)Nc2ccc(F)cc2)[C@@H](C)CN([C@H](C)CO)C(=O)c2cc(NS(=O)(=O)c3ccccc3)ccc2O1`, the relative growth is inactive: 1.02.

On to `COc1ccc(S(=O)(=O)N(C)C[C@@H]2Oc3ccc(NS(=O)(=O)c4ccc(F)cc4)cc3C(=O)N([C@@H](C)CO)C[C@@H]2C)cc1`, for which the relative growth is inactive: 1.03.

For `CCNC(=O)C[C@@H]1CC[C@H](NC(=O)C2CC2)[C@H](CO)O1`, the relative growth is inactive: 0.974.

Turning to `COc1ccc(S(=O)(=O)N(C)C[C@H]2Oc3ccc(NS(=O)(=O)c4ccccc4)cc3CC(=O)N([C@@H](C)CO)C[C@H]2C)cc1`, the relative growth was inactive: 0.988.

Turning to `C[C@H]1CN([C@@H](C)CO)S(=O)(=O)c2ccc(Br)cc2O[C@@H]1CN(C)C(=O)CCN1CCCCC1`, the relative growth was inactive: 0.954.

For the molecule `Nc1ccn([C@@H]2O[C@H](CO)[C@@H](O)C2(F)F)c(=O)n1`, the relative growth was inactive: 0.958.

Turning to `Cc1nn(C)c2c1[C@@H](c1ccc(C(F)(F)F)cc1)C(C#N)C(=N)O2` (stereo partly drawn), the relative growth was inactive: 1.02.

Regarding `CN(C)CC(=O)N[C@H]1CC[C@@H](CCNS(=O)(=O)c2ccccc2)O[C@@H]1CO`, the relative growth is inactive: 0.982.

As for `C[C@H](NC(=O)N(C)C[C@H]1OCc2ccccc2-c2c(n(C)c3ccccc23)C(=O)N([C@H](C)CO)C[C@H]1C)c1ccccc1`, the relative growth is inactive: 1.02.

As for `Nc1ncn(Cc2ccccc2)n1`, the relative growth is inactive: 1.02.

Consider `C[C@@H]1CCCCO[C@H](CN(C)C(=O)NC2CCCCC2)[C@H](C)CN([C@@H](C)CO)C(=O)c2cc(NS(=O)(=O)c3ccccc3)ccc2O1`, for which the relative growth is inactive: 0.985.

Turning to `O=C(N/N=C/[C@H](O)[C@@H](O)[C@@H](O)[C@H](O)C(=O)O)c1ccccc1O`, the relative growth was inactive: 0.993.

As for `COc1cc(C)c(C(=O)O)c(O)c1`, the relative growth was inactive: 0.971.

For `C[C@H](CO)N1C[C@H](C)[C@@H](CN(C)C(=O)Nc2cccc(C(F)(F)F)c2)OCc2ccccc2-c2c(n(C)c3ccccc23)C1=O`, the relative growth is inactive: 1.01.

On to `C[C@H]1CN([C@@H](C)CO)S(=O)(=O)c2ccc(C#CC(C)(C)O)cc2O[C@@H]1CN(C)Cc1ccncc1`, for which the relative growth was inactive: 0.995.

Take `Cc1noc(C)c1NC(=O)Nc1ccc2c(c1)CC(=O)N([C@H](C)CO)C[C@H](C)[C@H](CN(C)C(=O)Nc1cccc3ccccc13)O2`: the relative growth was inactive: 0.973.

For `Cc1ccc(S(=O)(=O)N2C[C@@H](O)COC[C@@H]3O[C@@H](CC(=O)NCCN4CCCCC4)CC[C@H]32)cc1`, the relative growth was inactive: 0.994.

Consider `C[C@H](CO)N1C[C@H](C)[C@@H](CN(C)C(=O)Nc2ccc3c(c2)OCO3)Oc2ccc(NC(=O)Cn3cnnn3)cc2C1=O`, for which the relative growth was inactive: 1.

For the molecule `C=CCOC(=O)[C@H]1[C@@H]2C(=O)O[C@@H](c3ccccc3)[C@@H](c3ccccc3)N2[C@@H](c2ccc(OCCOC(=O)[C@@H]3C[C@@H]4C(=O)NCC(=O)N4[C@@H]3c3cccc(OCCO)c3)cc2)[C@]12C(=O)Nc1ccccc12`, the relative growth was inactive: 1.04.
